To fix the notation:
B1: LINE1-mini (parent)
chain: GGCAGAGCUCAACACAGCGUGGCAAAGUGGCUGUGGCUAGACUGCC

Read counts are not given, so values of variants with three or more changes are uncertain.

The series covers variants of B1. Kind of series: self-cleavage, relative activity (ratio to wild type); higher = more cleavage; in vitro, sequencing; the parent is a self-cleaving ribozyme.
Regarding GGCAAAGCUCAAAAAAGCGUGGCAAAGUGGAUGUGGCUAGAUUGCC [G5A C13A C15A C31A C42U], the self-cleavage amounted to 0.06.
The same measure for GGCAAAGCUCAACACAGCGUGGCAAAGUGGCUGUGUCCAGACUGCC [G5A G36U U38C]: 0.03; for GGCAAAGCUCAACACAGCAUGGCAAAGUUGCUGUGGCUAGAUUGCG [G5A G19A G29U C42U C46G]: 0.41; for GGCAAAGCUCAACACAGCGUGGCAAACUGGCUGAGGCUAGACUGCC [G5A G27C U34A]: 0.05.
The figure for GGCAAAGCACAACACAGAGUAGCAAGGUGGCUGUGGCGAGACUGCC [G5A U9A C18A G21A A26G U38G] is 0.18; for GGCAAAGCUCAACAAAGCGUGACAAAGUUGCUGUGUCUAGACUGCC [G5A C15A G22A G29U G36U] it is 0.08.
The figure for GGCAAAGCACAACACAGCGUGGCAAAGUGGCUGUGGCUAGACUCCC [G5A U9A G44C] is 0.08; for GGCAAAGCUUAACACAGCGUGGCAAAGUGGCUGUUGCUAUACUGCC [G5A C10U G35U G40U] it is 0.13; for GGCAAAGCACAACACAGCGUGGCAAAGGGGCUCUGGCUAGGCUUCC [G5A U9A U28G G33C A41G G44U] it is 0.25.
GGCAAAGCUCAACACAGUGUGGCAAAGUGGCUGUGUUUCGACUGCC [G5A C18U G36U C37U A39C]: the self-cleavage was determined as 0.03.
For GGCAAAGCUCAACACAGCGUGGCAAAGUGGCUGUGGCUAAACUGGC [G5A G40A C45G], the self-cleavage came out at 0.01.
The figure for GGCAAAGCUCAAUACAGCGUGGCAAAGCGGCUGUGGCAAGACUGCC [G5A C13U U28C U38A] is 0.01.
The figure for GGCAAAGCCCACCACAGCGUUGCAAAGUGGCUGUGGCUAGACUGCC [G5A U9C A12C G21U] is 0.06; for GGCAAACCUCAACACAGCGUGGCAAAGUGGCUGUGGCUACACUGCC [G5A G7C G40C] it is 0.03; for GGCAAAGCUUAACACUGCGUGGCAAAGUGGCUGUGGCUAGACCGCC [G5A C10U A16U U43C] it is 0.07.
Turning to GGCAAAGCUCAAUACAGCGUGGCAAAGUGGCUGUUGCUAGACUGCC [G5A C13U G35U], the self-cleavage is 0.09.
The same measure for GGCAAAGCUCAACACAGCUUGGCAAAGUGGAUGUGGCUAGACUGCC [G5A G19U C31A]: 0.08; for GGCAAAGCUAAAAACAGCUUGGCAAAGUGGAUGUGGCUAGACUGCC [G5A C10A C13A G19U C31A]: 0.05.
The same measure for GGCAAAGCUCAACACAGCGUGGCAAAGUGGAUGUGGCUAGACUGGC [G5A C31A C45G]: 0.03; for GGCAAAGCUAAACACAUCGUGGCAAAGUGGCUGUGGCUAGACUGCC [G5A C10A G17U]: 0; for GGCAAAGCUCAACACAGCGUGGAAAAUUGACUGCGGCUAGACUGCC [G5A C23A G27U G30A U34C]: 0.05.
The same measure for GGCAAAGCUCAACACAGUUCUGCAAAGUGGCUGUGGCUAGACUGCC [G5A C18U G19U U20C G21U]: 0.1.
Regarding GGCAAAGCUCAAAACAGCGUGGCAAAGUGGCUGUGGCGGGACUGCC [G5A C13A U38G A39G], the self-cleavage was 0.03.
The figure for GGCAAAGCUCAACACACCGUGGCAAAGUGGCUGUGGCUAGACUUCC [G5A G17C G44U] is 0; for GGCAAAGCUAAACACAGCGUGGCAAAGUGGCUGUGGCUAGACUUCC [G5A C10A G44U] it is 0.06; for GGCAAAGCACAACACAGCGUGGCAAGGUGGCUGUGGCAAGACUGCC [G5A U9A A26G U38A] it is 0.31.
With GGCAAAGCUCAACACAGCGUGGCAAAGUCGCUGUGGCUAGAGUGCC [G5A G29C C42G], the self-cleavage was 0.04.
The same measure for GGCAAACCUCGACACAGCGUGGCAAAGUGGCUGUGGCUAUACUGCC [G5A G7C A11G G40U]: 0.05; for GGCAAAGCACAACAUAGCGUGGCAAAGUGGCUGUGGCUAGACUGAC [G5A U9A C15U C45A]: 0.16.
The same measure for GGCAAAGCUCAACACAGCGUGGUAAAGUGGUUGUGGCUAGACUGCC [G5A C23U C31U]: 0.42; for GGCAAAGCUCAACACAGCUUGGCAAAGUGGACAUGGCUAGGCUGCC [G5A G19U C31A U32C G33A A41G]: 0.05; for GGCAAAGCUCAACAGAGCGUGGCCAAGUGAUAGUGGCUAGACUGCC [G5A C15G A24C G30A C31U U32A]: 0.01.
The figure for GGCAAACCUCAACACAGCGUGGCAAAGUUGGUGUGUCUCGACUGCC [G5A G7C G29U C31G G36U A39C] is 0.01; for GGCAAAGCUCAACACAGCUUGGAAAAGUGGCUGUGGCUAGACUGCC [G5A G19U C23A] it is 0.03; for GGCAAAGCUCAACACAGCGUGGCAAAGUGGCUGUUGCUACACUGCC [G5A G35U G40C] it is 0.01.
Take GGCAAACCUCAACACAGCGUGGCAAAGUGGCUGUGGCUAGACAGCC [G5A G7C U43A]: the self-cleavage worked out at 0.22.
The same measure for GGCAAAGCUCAAUACAGCGUGGCUAAGUGGCUGUGGCUAAACUGCC [G5A C13U A24U G40A]: 0.05; for GGCAAAACUCAACACAGCGUGGCAAAGUGGCUGUGGCUAGACUGCU [G5A G7A C46U]: 0.21.
Take GGCAAAACUCAACACUGCGUGGCAAAGUGGCUGCGGCUAGACUGCC [G5A G7A A16U U34C]: the self-cleavage stood at 0.25.
Regarding GGCAAAGCUCAACACAGCGUGGCAAAGUGGCUGUCUCUAGACUGCC [G5A G35C G36U], the self-cleavage was determined as 0.01.
The figure for GGCAAAGCUCAACACAGCGUGGCAAAAUGCCUGUGGCUAUACUGCC [G5A G27A G30C G40U] is 0.05; for GGCAAAGCUCAACACAGCGUGGCAAAGUGGUUGUGCCUAGACCGCC [G5A C31U G36C U43C] it is 0.01; for GGCAAAGUUCAACACACCGUGGCAAAGUGGCUGUGGCUAGACUGCC [G5A C8U G17C] it is 1.25.
The same measure for GGCAAAGCUCAACACAGUGUGGCAAAGUGGCUGUGGCUAGACAGCC [G5A C18U U43A]: 0.17.
Turning to GGCAAAGCUCAAUACAGCGUGGCAAAGUGGCAGUGGCUAGACUGCC [G5A C13U U32A], the self-cleavage is 0.09.
The figure for GGCAAAGCUAAACAAAGCGUGGCAAAGUGGCUGUGGCUAGACUGCC [G5A C10A C15A] is 0.04.
The figure for GGCAAAGCUCAACACAGCGUGGCAAAGUGGCUCCGGCUAGGCUGCC [G5A G33C U34C A41G] is 0.03; for GGCAAAGCUCAACACAGCGUCGAAAAGUGGCUGUGGAUAGACUGCC [G5A G21C C23A C37A] it is 0.01; for GGCAAAGUUCAACACAGCGUGGCAAAGUGGCUGUCGCUAGACUGCC [G5A C8U G35C] it is 0.13.
The same measure for GGCAAAGCUUGCCACAGCGUGGCAAUGUGGCUGUGGCUAGACUGCC [G5A C10U A11G A12C A26U]: 0.04; for GGCAAAGCUCAACACAACGUGGCAAAGUGGCUGUGGCGAGAGUGCC [G5A G17A U38G C42G]: 0.05; for GGCAAAGCUCAACACAGCGUGGCAAAGUAGCUGUGGCUAGACUGGC [G5A G29A C45G]: 0.08.
As for GGCAAAGCUCAACACAGCGUGGCAAAGUGGCUGUGCGUAGACUGCC [G5A G36C C37G], the self-cleavage worked out at 0.83.
As for GGCAAAGCUCAACACAGCGUGGCAAAGUUGCUGUGGUUAGACGGCC [G5A G29U C37U U43G], the self-cleavage amounted to 0.
The same measure for GGCAAAGUUCAACACAGCGUGGCAAAGUGGCUGUGGCUAGAAUGCC [G5A C8U C42A]: 0.06.
The same measure for GGCAAAGCUCAAUAUAGCGUGGCAAAGUGCCUGUGGCUAGACUGCC [G5A C13U C15U G30C]: 0.06.

Values taken from the RNAGym collection of RNA variant scans (doi:10.7554/elife.90254).
